Inconclusive results, whose numbers are uncertain, are shown with a selection of clear calls. Where the call is inconclusive, the potency comes from a doubtful curve fit. Calls of active or inactive are those of the source. Calls follow the shape of the dose curve; as a rule, active = well fitted activation curve with a large enough effect in the main read-out, with a control signal flat (not every such curve was filed as active); inconclusive = small, poorly fitted or top-dose-only effect, or effect the other way, or a change in a side signal; inactive = flat fitted curve, though single readings scatter.
These compounds were tested against 3',5'-cyclic-AMP phosphodiesterase 4B (Homo sapiens) (UniProt Q07343) (assay: qHTS Assay for Inhibitors of PDE-IV (AID 607)). Conditions: HEK293 ACTOne CNG channel cells, membrane potential fluorescence; series mostly up to 22.9 µM.
UniProt Q07343, sequence (Q07343 whole entry, looked up): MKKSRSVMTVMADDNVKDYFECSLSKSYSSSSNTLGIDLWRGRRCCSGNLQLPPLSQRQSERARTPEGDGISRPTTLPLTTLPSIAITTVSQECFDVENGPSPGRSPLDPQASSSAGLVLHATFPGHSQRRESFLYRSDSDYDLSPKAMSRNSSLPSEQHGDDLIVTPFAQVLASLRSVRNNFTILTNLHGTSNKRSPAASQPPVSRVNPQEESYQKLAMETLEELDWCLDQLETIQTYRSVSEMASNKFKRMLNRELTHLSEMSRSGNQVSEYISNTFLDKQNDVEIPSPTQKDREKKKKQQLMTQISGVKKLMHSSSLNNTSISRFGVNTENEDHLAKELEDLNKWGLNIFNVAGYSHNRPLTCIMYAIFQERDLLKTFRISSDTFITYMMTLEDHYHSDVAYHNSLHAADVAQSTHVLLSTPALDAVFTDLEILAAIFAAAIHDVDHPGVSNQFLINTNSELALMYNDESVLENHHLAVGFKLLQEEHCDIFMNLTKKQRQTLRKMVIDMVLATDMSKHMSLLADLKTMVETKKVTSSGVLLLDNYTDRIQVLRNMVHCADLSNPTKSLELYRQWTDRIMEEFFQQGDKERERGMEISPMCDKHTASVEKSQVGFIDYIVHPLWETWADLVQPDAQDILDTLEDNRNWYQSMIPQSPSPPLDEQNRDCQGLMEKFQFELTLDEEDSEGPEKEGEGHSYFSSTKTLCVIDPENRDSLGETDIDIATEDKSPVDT
Summary of the method: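 Live HEK293 cells with a modified cyclic nucleotide-gated (CNG) channel report intracellular cAMP via membrane-potential dye fluorescence (ex 535/em 590 nm). Endogenous PDE-IV was targeted. Compounds were tested at up to 22.9 uM final; RO 20-1724 100 uM served as control.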
Potency is read from the fitted curve at half-maximal effect; tags tell the direction and shape of the fitted curve.

Potency, inconclusive:
COc1cc2c(cc1OC)C(=O)N(C)CC2 7.55 µM [activator, partial curve, poor fit]
CCc1cccc2nc3c(c([Si](C)(C)C)c12)Cn1c-3cccc1=O 12.6 µM [activator, partial curve]
O=C(O)COc1ccc(OCCNC[C@@H](O)COc2ccccc2)cc1 19 µM [inhibitor, single point]
N=C(N)SCC(=O)O 1.26 µM [inhibitor, partial curve]

Potency, inactive:
CC(C)[C@@H](CC(=O)N[C@@H]1CCCC[C@H]1C(=O)N[C@H](CC(=O)N[C@@H](CCC(=O)O)CC(=O)O)Cc1c[nH]c2ccccc12)NC(=O)C[C@H](Cc1ccccc1)NC(=O)[C@@H]1CNCC[C@H]1N
COC(=O)N[C@H](c1ccccc1)[C@@]1(C)C[C@@H]1[C@@H](C)C(=O)Nc1ccc2ccccc2c1
COC(=O)[C@@H]1C[C@H]1[C@@H](NC(=O)c1ccccc1)c1ccccc1
O=C(O)[C@H]1[C@H](C(=O)O)[C@H](C(=O)O)C[C@@H]1C(=O)O
CS(=O)(=O)N1CCC2(CC1)CN(C(=O)Nc1cccc(F)c1)C2
NC[C@@H]1O[C@H](O[C@@H]2[C@H](O[C@@H]3O[C@H](CO)[C@@H](COC[C@H]4O[C@@H](CN)[C@@H](O)[C@@H](O)[C@@H]4N)[C@@H]3O)[C@@H](O)[C@@H](N)C[C@H]2N)[C@@H](N)[C@H](O)[C@@H]1O

— PubChem BioAssay (NCATS)
